Measurements taken from PubChem BioAssay AID463173 (ICCB-Longwood Screening Facility, Harvard Medical School, 2010).
Hit rate of the full screen: of about 52,000 compounds, about 4,300 (8.3%) were called active. Rule as the data show it: active = survival mostly below about 52% (no sharp cut-off); inactive = mostly above about 56%. The list shows a part of the results.

What follows are molecules tested on DeltatarO mutant (assay: S. aureus survival, RN4220 and DeltatarO strains – OD600, teichoic acid synthesis inhibitors, primary screen (AID 463173)). Conditions: S. aureus RN4220 wild type/DeltatarO growth, OD600, 18 h, active compounds read low, screened at 18.75 µg/mL (by protocol).

SMILES	survival
Cc1cc(C)c(NC(=O)Cn2c(=O)n(CCC(C)C)c(=O)c3cccnc32)c(C)c1	inactive: 81%
COc1ccc(-c2nn(C)c3sc(C(=O)NCCN(C)C)cc23)cc1OC	inactive: 96%
COc1ccc(CNC(=O)CN2N=C(c3ccc(Cl)cc3)CCC2=O)cc1	inactive: 119%
CCc1ccc(C(=O)c2cn(CC(=O)NCCc3ccccc3)c3nc(C)ccc3c2=O)cc1	inactive: 67%
COc1ccc(C(=O)CC2(O)C(=O)N(Cc3ccccc3)c3ccc(Br)cc32)cc1 (centres undefined)	inactive: 50%
O=C(O)Cn1ccc(=O)[nH]c1=O	inactive: 96%
COc1cccc(NC(=O)C2CCCN(c3ncnc4onc(-c5ccc(F)cc5)c34)C2)c1 (centres undefined)	inactive: 69%
CCOC(=O)c1c(Nc2ccc(C)c(C)c2)nnc(-c2ccccc2)c1-c1ccccc1	active: -5%
CCC1CCCCN1CCCNC(=O)c1ccc2c(c1)c(C)c(C)n2CC (centres undefined)	inactive: 71%
Cc1ccc(C)c(OCC(=O)Nc2sc3c(c2C#N)CCCC3)c1C	inactive: 49%
CCCC(=O)Nc1cc2nn(-c3ccc(OC)cc3)nc2cc1C	inactive: 59%
Nc1nnc(CC(=O)N2CCCC2)s1	inactive: 99%
CCOc1ccc(NC(=O)NCCN2CCN(c3cc(Cl)ccc3C)CC2)cc1	inactive: 54%
O=C(NCCc1ccccc1)c1c[nH]c2ccc(S(=O)(=O)Nc3ccc(F)cc3F)cc2c1=O	inactive: 72%
COC(=O)Cc1[nH]nc2c1C(c1c[nH]c3ccccc13)C(C#N)=C(N)O2 (centres undefined)	inactive: 98%
CCc1ccc2[nH]c(=O)c(CN(Cc3ccco3)Cc3nnnn3Cc3ccccc3)cc2c1	inactive: 85%
CCc1nc(SC)ncc1C(=O)NCc1cccc(Br)c1	inactive: 89%
O=C(Cn1nc(Cc2cccnc2)c2ccccc2c1=O)N1CCN(c2ccccc2F)CC1	inactive: 78%
Cc1ccc(Cl)cc1N1CCN(c2nc3ccc(C(=O)c4ccccc4)cc3n3cnnc23)CC1	active: -4%
Cc1cc(O)c2c(C)c(CC(=O)NCc3ccccc3Cl)c(=O)oc2c1	inactive: 62%

SMILES	survival
O=C(NCCSc1c[nH]c2ccccc12)c1ccc(Cl)cc1	active: 47%
O=C(NCCc1ccccc1)c1ccc2c(c1)N(Cc1ccc(Cl)cc1)C(=O)c1ccccc1S2(=O)=O	inactive: 89%
CCN(c1ccccc1C)S(=O)(=O)c1nnc(NC(=O)c2ccc(OC)c(OC)c2)s1	active: 40%
Cc1ccc(C2=Nc3ccccc3N=C(c3ccc(F)cc3)C2)c(O)c1	inactive: 60%
CCCCn1c(CCCN2C(=O)c3ccccc3C2=O)nc2ccccc2c1=O	inactive: 75%
CCOc1ccc(NC(=O)CSc2nc3ccsc3c(=O)n2CCC(C)C)cc1	inactive: 88%
Cc1ccc(NC(=O)C2CCN(S(=O)(=O)c3ccc4c(c3)CCCC(=O)N4)CC2)cc1N(C)C	inactive: 120%
COc1ccc(OC)c(NC(=O)C(C)n2c(=O)c(-c3ccccc3NC(C)=O)nc3ccccc32)c1 (centres undefined)	inactive: 103%
COc1ccc(-c2nc(CSCC(=O)NCCC(C)C)c(C)o2)cc1OC	inactive: 68%
COc1ccccc1NS(=O)(=O)c1cn(C)c(C)n1	active: 37%
COc1ccc(N2CC(NC(=O)COc3cccc(C)c3)CC2=O)cc1OC (centres undefined)	inactive: 71%
COc1ccccc1N(CC(=O)Nc1ccccc1C(F)(F)F)S(=O)(=O)c1ccc(C)cc1	inactive: 64%
Cc1ccc(C)c(N2CCN(C(=O)Cn3nc(C)c4sc5ccccc5c4c3=O)CC2)c1	inactive: 55%
COC(=O)c1ccc(Cc2ccccc2)o1	inactive: 86%
O=C1C(c2nc3ccccc3[nH]2)=C(O)c2ccccc21	inactive: 74%
Cc1oc2ccc(O)c(CN3CCCCCC3)c2c1C(=O)Nc1cccc(C(F)(F)F)c1	inactive: 46%
O=C(CSc1cn(CC(=O)N2CCCCC2)c2ccccc12)NCc1ccccc1Cl	inactive: 74%
CC(C)c1ccc(NC(=O)c2cc3c(=O)[nH]c4ccccc4c3n2C)cc1	inactive: 70%
CCN1C(=O)c2ccccc2S(=O)(=O)c2ccc(C(=O)NCc3ccccc3OC)cc21	inactive: 85%
CCOC(=O)C1=C2SCCN2C(=O)C(C#N)C1(C)C (centres undefined)	inactive: 86%

SMILES	survival
CCOC(=O)c1[nH]c2ccc(C)cc2c1NC(=O)OC	inactive: 95%
Cc1nn(-c2ccccc2)c(Cl)c1/C=N/NC(=O)c1cccnc1	inactive: 96%
O=C(CN1C(=O)c2cccnc2Sc2ccccc21)Nc1cc(F)ccc1F	inactive: 79%
Cc1ccc(-n2nc(C)c3c(C(=O)NCCc4ccc(S(N)(=O)=O)cc4)cc(C)nc32)cc1	inactive: 118%
COC(=O)Cn1c(O)c(N=NC(=O)C2COc3ccccc3O2)c2ccccc21 (centres undefined)	inactive: 69%
CCC1CN(C(=O)N2CCC(C(=O)NCc3cccc(F)c3)CC2)c2cc(C)ccc2O1 (centres undefined)	inactive: 79%
COc1ccc(C2/C(=C(\O)c3ccc(C)cc3)C(=O)C(=O)N2CCC(=O)O)cc1 (centres undefined)	inactive: 88%
O=C1C2C3c4ccccc4C(c4ccccc43)C2C(=O)N1O (centres undefined)	inactive: 99%
COc1ccc(OC)c(CNC(=O)NCc2noc3ccc(C)cc23)c1	inactive: 104%
Cc1c(N2C(=O)CSC2=S)c(=O)n(-c2ccccc2)n1C	inactive: 82%
Cc1cc(Nc2cccc(Cl)c2)nc2ccc(NC(=O)COc3ccc(Cl)cc3)cc12	inactive: 107%
Cc1cccc(NC(=O)Cn2c(SCC(=O)NCc3ccccc3)nc3ccccc32)c1C	inactive: 119%
O=C(c1cnn(-c2ccc(F)cc2)c1-n1cccc1)N1CCN(c2ccccc2)CC1	inactive: 93%
CNC(=O)CCC(=O)Nc1ccc(C)cc1	inactive: 104%
CCOc1ccc(-c2cn3nc(CC(C)C)sc3n2)cc1	inactive: 116%
CCCCN(C)CCCNC(=O)c1cn(CC)c2ccc(S(=O)(=O)N3CCc4ccccc4C3)cc2c1=O	inactive: 95%
COc1ccc(NC(=O)Nc2cc(C(=O)NCc3ccc(C)cc3)ccc2N2CCCC2)cc1	inactive: 99%
C1=CCC(CN2CCNCC2)CC1 (centres undefined)	inactive: 98%
COc1ccccc1CNC(=O)c1cc(S(=O)(=O)N2CCCC(C)C2)cn1C (centres undefined)	inactive: 93%
